# Experimental data reported in article PMC6377148.
# Chains of the proteins cited; added tags and fusions are not shown.
# UniProt P49336: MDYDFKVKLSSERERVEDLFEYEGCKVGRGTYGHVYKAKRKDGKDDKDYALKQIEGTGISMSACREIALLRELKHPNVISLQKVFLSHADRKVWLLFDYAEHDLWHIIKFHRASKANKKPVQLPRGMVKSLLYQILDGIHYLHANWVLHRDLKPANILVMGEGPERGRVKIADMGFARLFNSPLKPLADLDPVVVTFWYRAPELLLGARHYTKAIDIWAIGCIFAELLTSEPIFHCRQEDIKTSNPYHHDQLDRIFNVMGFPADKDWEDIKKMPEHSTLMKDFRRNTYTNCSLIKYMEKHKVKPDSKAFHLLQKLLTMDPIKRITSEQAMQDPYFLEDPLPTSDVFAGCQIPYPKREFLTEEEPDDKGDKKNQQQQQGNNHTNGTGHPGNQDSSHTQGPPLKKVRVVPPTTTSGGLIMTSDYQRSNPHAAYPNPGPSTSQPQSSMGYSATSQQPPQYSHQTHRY
# UniProt Q7Z2Z1: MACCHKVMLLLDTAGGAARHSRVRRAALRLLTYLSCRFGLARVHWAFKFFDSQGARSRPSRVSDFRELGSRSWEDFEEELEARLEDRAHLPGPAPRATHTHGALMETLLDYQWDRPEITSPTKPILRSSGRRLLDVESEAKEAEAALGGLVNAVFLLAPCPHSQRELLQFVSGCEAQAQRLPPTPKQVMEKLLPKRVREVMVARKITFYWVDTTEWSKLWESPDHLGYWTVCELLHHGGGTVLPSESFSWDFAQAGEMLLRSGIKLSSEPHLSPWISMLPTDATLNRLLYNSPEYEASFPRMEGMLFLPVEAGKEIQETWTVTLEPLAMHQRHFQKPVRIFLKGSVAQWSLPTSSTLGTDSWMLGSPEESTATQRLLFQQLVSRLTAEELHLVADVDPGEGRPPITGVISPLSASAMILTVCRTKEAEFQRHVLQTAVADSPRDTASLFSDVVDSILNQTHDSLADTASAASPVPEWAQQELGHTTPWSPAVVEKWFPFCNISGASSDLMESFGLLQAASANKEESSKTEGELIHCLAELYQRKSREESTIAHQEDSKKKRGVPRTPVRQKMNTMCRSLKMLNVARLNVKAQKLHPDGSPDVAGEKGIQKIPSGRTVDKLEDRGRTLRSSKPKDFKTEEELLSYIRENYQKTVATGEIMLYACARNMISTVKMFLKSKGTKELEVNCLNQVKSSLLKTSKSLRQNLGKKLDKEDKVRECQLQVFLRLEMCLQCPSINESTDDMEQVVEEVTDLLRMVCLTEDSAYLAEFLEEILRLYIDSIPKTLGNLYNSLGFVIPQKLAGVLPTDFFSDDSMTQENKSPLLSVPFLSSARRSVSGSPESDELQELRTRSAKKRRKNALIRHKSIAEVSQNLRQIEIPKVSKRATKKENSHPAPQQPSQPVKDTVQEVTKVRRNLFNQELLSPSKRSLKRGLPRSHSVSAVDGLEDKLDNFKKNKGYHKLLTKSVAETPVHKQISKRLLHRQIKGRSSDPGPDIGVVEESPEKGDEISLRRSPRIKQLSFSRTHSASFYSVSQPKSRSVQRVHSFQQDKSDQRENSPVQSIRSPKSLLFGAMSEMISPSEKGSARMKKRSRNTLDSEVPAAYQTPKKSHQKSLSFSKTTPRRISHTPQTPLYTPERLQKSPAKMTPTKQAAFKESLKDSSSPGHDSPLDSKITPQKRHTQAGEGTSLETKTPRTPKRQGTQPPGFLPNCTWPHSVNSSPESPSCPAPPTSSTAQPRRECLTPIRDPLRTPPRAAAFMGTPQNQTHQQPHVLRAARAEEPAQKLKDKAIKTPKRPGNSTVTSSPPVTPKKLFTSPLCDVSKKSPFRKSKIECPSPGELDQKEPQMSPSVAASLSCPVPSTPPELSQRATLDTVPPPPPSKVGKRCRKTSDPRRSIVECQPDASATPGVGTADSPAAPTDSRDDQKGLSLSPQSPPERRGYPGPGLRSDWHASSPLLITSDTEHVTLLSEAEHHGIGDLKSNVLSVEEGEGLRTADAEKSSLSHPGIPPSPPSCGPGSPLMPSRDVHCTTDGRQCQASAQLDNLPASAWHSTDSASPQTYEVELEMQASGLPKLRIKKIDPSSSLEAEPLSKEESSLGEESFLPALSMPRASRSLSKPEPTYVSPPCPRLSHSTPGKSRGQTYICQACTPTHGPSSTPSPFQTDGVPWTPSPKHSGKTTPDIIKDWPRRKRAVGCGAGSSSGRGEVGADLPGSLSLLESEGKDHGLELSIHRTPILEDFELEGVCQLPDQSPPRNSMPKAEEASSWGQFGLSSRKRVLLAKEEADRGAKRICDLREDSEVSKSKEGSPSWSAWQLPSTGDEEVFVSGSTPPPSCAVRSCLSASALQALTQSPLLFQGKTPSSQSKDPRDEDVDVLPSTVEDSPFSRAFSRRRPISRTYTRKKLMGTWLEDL
# Substitutions are numbered along the chain they refer to. No constants are given. Whether binding was seen depends on the method and setting. In cells and extracts the contact can be indirect. Some entries that bind do so weakly or less than the wild type. Tags and fused reporters may be left off the sequences shown.
# Columns and labels:
# Assay in all cases: co-IP; 293T transiently transfected with C-terminally 3×Flag-tagged MTBP; anti-FLAG antibody on Protein G Dynabeads, lysis buffer 20 mM HEPES, 150 mM NaCl, 10% glycerol, 0.1% Triton X-100, 1 h at 4°C; endogenous Treslin/TICRR and Cdk8 by immunoblot
# [1] = molecular target: T1, MTBP D313A, C-terminally 3×Flag-tagged (293T) (human) (UniProt Q96DY7)
# T1 sequence: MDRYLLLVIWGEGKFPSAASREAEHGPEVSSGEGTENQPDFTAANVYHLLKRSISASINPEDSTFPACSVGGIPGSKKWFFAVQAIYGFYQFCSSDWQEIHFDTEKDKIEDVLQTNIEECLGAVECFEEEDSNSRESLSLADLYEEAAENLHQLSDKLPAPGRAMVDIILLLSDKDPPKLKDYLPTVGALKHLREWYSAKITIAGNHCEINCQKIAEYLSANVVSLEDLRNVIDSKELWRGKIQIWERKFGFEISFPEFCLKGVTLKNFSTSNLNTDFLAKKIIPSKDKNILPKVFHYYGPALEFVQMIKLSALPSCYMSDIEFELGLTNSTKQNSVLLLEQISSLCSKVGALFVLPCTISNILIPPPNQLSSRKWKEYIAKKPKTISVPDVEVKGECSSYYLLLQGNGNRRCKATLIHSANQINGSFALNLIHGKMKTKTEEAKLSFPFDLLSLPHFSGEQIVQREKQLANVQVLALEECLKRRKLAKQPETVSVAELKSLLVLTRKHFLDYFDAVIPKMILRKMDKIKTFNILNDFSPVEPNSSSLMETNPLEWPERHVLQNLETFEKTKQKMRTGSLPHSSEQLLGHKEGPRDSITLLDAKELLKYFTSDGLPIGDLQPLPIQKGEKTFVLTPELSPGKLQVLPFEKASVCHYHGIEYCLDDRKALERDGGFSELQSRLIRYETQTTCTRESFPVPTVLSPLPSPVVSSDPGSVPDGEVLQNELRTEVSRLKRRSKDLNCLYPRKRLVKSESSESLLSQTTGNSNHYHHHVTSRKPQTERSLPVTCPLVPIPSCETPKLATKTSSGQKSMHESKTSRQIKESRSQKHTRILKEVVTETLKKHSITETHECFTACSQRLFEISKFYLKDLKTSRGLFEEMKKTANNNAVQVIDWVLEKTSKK
# [2] = molecular target: T2, MTBP-5m, C-terminally 3×Flag-tagged (293T) (human) (UniProt Q96DY7)
# T2 sequence: T1 sequence with V306D, I309D, L314D, P315D
# [3] = molecular target: T3, MTBP I309D, C-terminally 3×Flag-tagged (293T) (human) (UniProt Q96DY7)
# T3 sequence: T1 sequence with I309D, A313D
Substance,binding [1],binding [2],binding [3]
"Cdk8 (cyclin-dependent kinase 8), endogenous (from UniProt P49336 1-464) (enzyme)",binds,binds,binds
"Treslin/TICRR (TopBP1-interacting replication stimulating protein/TopBP1-interacting checkpoint and replication regulator), endogenous (from UniProt Q7Z2Z1 1-1910)",binds,no binding,no binding
